In all, about 81,000 sequences were measured (“one-hybrid fitness for binding parS DNA”: median about -0.17, highest 2% from about 0.51 on). This is one part of the list.
B1: Caulobacter ParB omega fusion; a variant is named by its letters at X, in order, B8GW30 (parent)
chain: MESVVVGEPGMSEGRRGLGRGLSALLGEVDAAPAQAPGEQLGGSREAPIEILQRNPDQPRRTFREEDLEDLSNSIREKGVLQPILVRPSPDTAGEYQIVAGERAWRAAQRAGLKTVPIMVRELDDLAVLEIGIIENVQRADLNVLEEALSYKVLMEKFERTQENIAQTIGKSXSHVANXMRLLXLPDEVQSYLVSGELTAXHARAIAAAADPVALAKQIIEGGLSVRETEALARKAPNLSAGKSKGGRPPRVKDTDTQALESDLSSVLGLDVSIDHRGSTGTLTITYATLEQLDDLCNRLTRGI

Variants of: B1
Assay: one-hybrid fitness for binding parS DNA (scaled: cognate 1, non-cognate 0); higher = stronger binding
Conditions: with parS DNA site
In short: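 In E. coli USO, a HIS3 reporter with its site placed 19 bp from the promoter was used to select Caulobacter ParB variants randomised at four specificity codons. Growth lasted 48 hours at 37°C on histidine-free M9 containing 0.1 mM IPTG and 5 mM 3-AT. Fitness was taken as the log change in variant-to-wild-type read ratio from Illumina sequencing of pre- and post-selection plasmids, rescaled between the non-cognate and cognate sites.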

Row | Variant | one-hybrid fitness for binding parS DNA
1 | DLQG | ≤ 0.2
2 | MLLC | ≤ 0.2
3 | QALL | ≤ 0.2
4 | TFRC | ≤ 0.2
5 | DDPT | ≤ 0.2
6 | NVQL | ≤ 0.2
7 | HRPE | ≤ 0.2
8 | TVRR | ≤ 0.2
9 | GPSN | ≤ 0.2
10 | FKPA | ≤ 0.2
11 | YAYV | ≤ 0.2
12 | DANW | ≤ 0.2
13 | AGGN | ≤ 0.2
14 | KFRS | ≤ 0.2
15 | HRQL | ≤ 0.2
16 | KASI | ≤ 0.2
17 | MWLG | ≤ 0.2
18 | YPKR | ≤ 0.2
19 | WSSG | ≤ 0.2
20 | AVTE | ≤ 0.2
21 | WVIC | ≤ 0.2
22 | FHAE | 0.337
23 | VMAG | ≤ 0.2
24 | NFGS | ≤ 0.2

Row | Variant | one-hybrid fitness for binding parS DNA
25 | KMWF | ≤ 0.2
26 | DFWV | ≤ 0.2
27 | QCKM | ≤ 0.2
28 | SALA | ≤ 0.2
29 | RYDN | 0.407
30 | IPTF | ≤ 0.2
31 | AQCG | ≤ 0.2
32 | VRHT | ≤ 0.2
33 | PWDE | ≤ 0.2
34 | VLDV | ≤ 0.2
35 | VVRN | ≤ 0.2
36 | MRIT | ≤ 0.2
37 | AWEG | ≤ 0.2
38 | ALCL | ≤ 0.2
39 | WYNW | ≤ 0.2
40 | GHIS | ≤ 0.2
41 | GQYF | ≤ 0.2
42 | DMDC | ≤ 0.2
43 | DMSC | ≤ 0.2
44 | FCRT | ≤ 0.2
45 | WHRR | ≤ 0.2
46 | VGPS | ≤ 0.2
47 | RDKL | ≤ 0.2
48 | YLVK | ≤ 0.2

Row | Variant | one-hybrid fitness for binding parS DNA
49 | LANE | ≤ 0.2
50 | TSVW | ≤ 0.2
51 | CTFC | ≤ 0.2
52 | TQPW | ≤ 0.2
53 | KLRN | ≤ 0.2
54 | EHLW | ≤ 0.2
55 | ILGS | ≤ 0.2
56 | DVWT | ≤ 0.2
57 | STDR | ≤ 0.2
58 | SCER | ≤ 0.2
59 | HVKV | ≤ 0.2
60 | VRLS | ≤ 0.2
61 | NIII | ≤ 0.2
62 | HCPC | ≤ 0.2
63 | WAGN | ≤ 0.2
64 | VPAH | 0.227
65 | CPIL | ≤ 0.2
66 | CLCV | ≤ 0.2
67 | TTLC | ≤ 0.2
68 | ATHM | ≤ 0.2
69 | NNNA | ≤ 0.2
70 | AITL | ≤ 0.2
71 | SPGL | ≤ 0.2
72 | HSNT | ≤ 0.2

Row | Variant | one-hybrid fitness for binding parS DNA
73 | YHRV | ≤ 0.2
74 | QQFM | ≤ 0.2
75 | SPEG | ≤ 0.2
76 | TQFS | ≤ 0.2
77 | PACN | ≤ 0.2
78 | IPWR | ≤ 0.2
79 | PIEA | ≤ 0.2
80 | TWVS | ≤ 0.2
81 | GEVF | ≤ 0.2
82 | RFGR | ≤ 0.2
83 | HFAM | ≤ 0.2
84 | NASS | ≤ 0.2
85 | FKKT | ≤ 0.2
86 | MNAW | ≤ 0.2
87 | HMHM | ≤ 0.2
88 | LIWY | ≤ 0.2
89 | DESS | ≤ 0.2
90 | MYGC | ≤ 0.2
91 | QTET | ≤ 0.2
92 | TRWV | ≤ 0.2
93 | DDPE | ≤ 0.2
94 | EWPD | ≤ 0.2
95 | TPAE | ≤ 0.2
96 | KVWS | ≤ 0.2

Row | Variant | one-hybrid fitness for binding parS DNA
97 | APGW | ≤ 0.2
98 | VMIS | ≤ 0.2
99 | LDSK | ≤ 0.2
100 | YCIC | ≤ 0.2
101 | HRFS | 0.241
102 | GIPD | ≤ 0.2
103 | SQEI | ≤ 0.2
104 | QLAV | ≤ 0.2
105 | KPQS | ≤ 0.2
106 | TACS | ≤ 0.2
107 | LCPE | ≤ 0.2
108 | WNIS | ≤ 0.2
109 | NGRG | ≤ 0.2
110 | SFLF | ≤ 0.2
111 | NMYG | ≤ 0.2
112 | ADKA | ≤ 0.2
113 | SKWR | ≤ 0.2
114 | QPTF | ≤ 0.2
115 | PVDL | ≤ 0.2
116 | VMPR | ≤ 0.2
117 | ATIG | ≤ 0.2
118 | VQKH | ≤ 0.2
119 | ARFY | ≤ 0.2
120 | RGKQ | ≤ 0.2

Row | Variant | one-hybrid fitness for binding parS DNA
121 | IELS | ≤ 0.2
122 | EINP | ≤ 0.2
123 | KHSC | ≤ 0.2
124 | WSPT | ≤ 0.2
125 | NKNS | ≤ 0.2
126 | RTSM | 0.297
127 | SLNL | ≤ 0.2
128 | GNKT | ≤ 0.2
129 | RKCR | ≤ 0.2
130 | IVWV | ≤ 0.2
131 | QKKV | ≤ 0.2
132 | SVLW | ≤ 0.2
133 | LCGD | ≤ 0.2
134 | NKRL | ≤ 0.2
135 | SMLD | ≤ 0.2
136 | KRWV | ≤ 0.2
137 | MVCR | ≤ 0.2
138 | WNPR | ≤ 0.2
139 | PALG | ≤ 0.2
140 | QGHE | ≤ 0.2
141 | MTIP | ≤ 0.2
142 | DTLG | ≤ 0.2
143 | PEPL | ≤ 0.2
144 | DKCS | ≤ 0.2

Row | Variant | one-hybrid fitness for binding parS DNA
145 | YYWR | ≤ 0.2
146 | MSWC | ≤ 0.2
147 | QHYD | ≤ 0.2
148 | VVGG | ≤ 0.2
149 | QYRR | ≤ 0.2
150 | PWNH | ≤ 0.2
151 | IAAT | ≤ 0.2
152 | GQTT | ≤ 0.2
153 | AHTG | ≤ 0.2
154 | KKPL | ≤ 0.2
155 | PRNQ | ≤ 0.2
156 | WKPT | ≤ 0.2
157 | NLAS | ≤ 0.2
158 | YAFA | ≤ 0.2
159 | TKMA | ≤ 0.2
160 | AKIG | ≤ 0.2
161 | QWAE | ≤ 0.2
162 | QPTT | ≤ 0.2
163 | QACL | ≤ 0.2
164 | QQAY | ≤ 0.2
165 | RLTL | ≤ 0.2
166 | PKVS | ≤ 0.2
167 | RTDK | ≤ 0.2
168 | SLNN | ≤ 0.2

Row | Variant | one-hybrid fitness for binding parS DNA
169 | ARIT | ≤ 0.2
170 | GVRV | ≤ 0.2
171 | YPAM | ≤ 0.2
172 | RQQV | ≤ 0.2
173 | GITG | ≤ 0.2
174 | PYTW | ≤ 0.2
175 | KNHG | ≤ 0.2
176 | PTDK | ≤ 0.2
177 | DDNA | ≤ 0.2
178 | AFHL | ≤ 0.2
179 | QDSC | ≤ 0.2
180 | TTSH | ≤ 0.2
181 | AGYC | ≤ 0.2
182 | LKDM | ≤ 0.2
183 | TKFR | ≤ 0.2
184 | VSVV | ≤ 0.2
185 | PFGA | ≤ 0.2
186 | PANN | ≤ 0.2
187 | MVRC | ≤ 0.2
188 | VVSA | ≤ 0.2
189 | WCTS | ≤ 0.2
190 | SHCT | ≤ 0.2
191 | QCQW | ≤ 0.2
192 | AWTE | ≤ 0.2

Row | Variant | one-hybrid fitness for binding parS DNA
193 | CNGT | ≤ 0.2
194 | CITS | ≤ 0.2
195 | VKIM | ≤ 0.2
196 | GDNR | ≤ 0.2
197 | NSTN | ≤ 0.2
198 | WIVS | ≤ 0.2
199 | EAPT | 0.221
200 | YPDE | ≤ 0.2
201 | QKYG | ≤ 0.2
202 | NSDW | ≤ 0.2
203 | GCTC | ≤ 0.2
204 | PFRC | ≤ 0.2
205 | AYRT | ≤ 0.2
206 | KTMS | ≤ 0.2
207 | KMTH | ≤ 0.2
208 | EELG | ≤ 0.2
209 | LHRP | ≤ 0.2
210 | RYDQ | 0.223
211 | YSTD | ≤ 0.2
212 | TATV | ≤ 0.2
213 | NTVS | ≤ 0.2
214 | NRLA | ≤ 0.2
215 | TLWD | ≤ 0.2
216 | SKDS | ≤ 0.2

Row | Variant | one-hybrid fitness for binding parS DNA
217 | AFTF | ≤ 0.2
218 | HSTD | ≤ 0.2
219 | EVLK | ≤ 0.2
220 | VDCF | ≤ 0.2
221 | RAYT | 0.904
222 | MMLS | ≤ 0.2
223 | YNPT | ≤ 0.2
224 | QSGC | ≤ 0.2
225 | VRKR | ≤ 0.2
226 | LHDL | ≤ 0.2
227 | RYFG | 0.932
228 | QHAG | ≤ 0.2
229 | KHLR | ≤ 0.2
230 | WLDV | ≤ 0.2
231 | GFPW | ≤ 0.2
232 | NASA | ≤ 0.2
233 | ASVP | ≤ 0.2
234 | PQMV | ≤ 0.2
235 | QYRY | ≤ 0.2
236 | QLTV | ≤ 0.2
237 | YQRE | ≤ 0.2
238 | MGVD | ≤ 0.2
239 | HKAL | ≤ 0.2
240 | QLIP | ≤ 0.2

Row | Variant | one-hybrid fitness for binding parS DNA
241 | SKTC | ≤ 0.2
242 | SLCA | ≤ 0.2
243 | DNRR | ≤ 0.2
244 | WSIS | ≤ 0.2
245 | SCTF | ≤ 0.2
246 | ITND | ≤ 0.2
247 | TAEE | ≤ 0.2
248 | QPYE | ≤ 0.2
249 | NCKF | ≤ 0.2
250 | SAKH | ≤ 0.2
251 | TSKP | ≤ 0.2
252 | GPHN | ≤ 0.2
253 | CIRL | ≤ 0.2
254 | LMMV | ≤ 0.2
255 | KRKC | ≤ 0.2
256 | RIQD | ≤ 0.2
257 | DFLC | ≤ 0.2
258 | PRPG | ≤ 0.2
259 | WRRN | ≤ 0.2
260 | SWMS | ≤ 0.2
261 | EPPS | ≤ 0.2
262 | LHCS | ≤ 0.2
263 | SMTS | ≤ 0.2
264 | YNRN | ≤ 0.2

Row | Variant | one-hybrid fitness for binding parS DNA
265 | QQNN | ≤ 0.2
266 | GKTN | ≤ 0.2
267 | TRHH | ≤ 0.2
268 | DTPL | ≤ 0.2
269 | PKAQ | ≤ 0.2
270 | PTPT | ≤ 0.2
271 | WCIS | ≤ 0.2
272 | CTVG | ≤ 0.2
273 | ASII | ≤ 0.2
274 | AVGF | ≤ 0.2
275 | RSAA | 0.554
276 | EGPC | ≤ 0.2
277 | RSRY | 0.55
278 | FHKR | ≤ 0.2
279 | LSDD | ≤ 0.2
280 | TADD | ≤ 0.2
281 | PYST | ≤ 0.2
282 | MDVG | ≤ 0.2
283 | REYS | 0.287
284 | QTIL | ≤ 0.2
285 | STST | ≤ 0.2
286 | SDDT | ≤ 0.2
287 | CLKY | ≤ 0.2
288 | RKEQ | ≤ 0.2

Row | Variant | one-hybrid fitness for binding parS DNA
289 | AISR | ≤ 0.2
290 | VTPG | ≤ 0.2
291 | RCSG | 0.997
292 | NNKT | ≤ 0.2
293 | MSEN | ≤ 0.2
294 | TRNK | ≤ 0.2
295 | AADA | ≤ 0.2
296 | NEMS | ≤ 0.2
297 | DSTN | ≤ 0.2
298 | TDVG | ≤ 0.2
299 | RKKC | 0.694
300 | YLHK | ≤ 0.2
301 | MFDS | ≤ 0.2
302 | QTTP | ≤ 0.2
303 | LLKY | ≤ 0.2
304 | GNPN | ≤ 0.2
305 | PCKM | ≤ 0.2
306 | VDRM | ≤ 0.2

From a collection of fitness landscapes (doi:10.1016/j.celrep.2020.107928)
